From PubChem BioAssay AID488969 (Vanderbilt High Throughput Screening Facility, 2010) come the findings set out here.

Over roughly 110,000 compounds, “z-score” has its median near -0.1; the highest 2% begin near 2. The list shows a part of the results. Activity calls are given as the source filed them.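 How the source made its calls: active means z-score in the third read window above 3 or below -3; inactive means the rest.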

The target in this assay is Metabotropic glutamate receptor 8 (Rattus norvegicus) (UniProt P70579). The assay can be described thus: rat mGluR8 modulators via GIRK flux, primary screen, cell-based, thallium flux, HTS (AID 488969). Conditions: HEK293 rat mGluR8, GIRK (G protein-gated inwardly rectifying potassium channel) thallium flux, FluoZin2; at 10 µM; stronger effect = higher value; submaximal glutamate (EC20) added with thallium.
Sequence of UniProt P70579 (P70579 whole entry, looked up): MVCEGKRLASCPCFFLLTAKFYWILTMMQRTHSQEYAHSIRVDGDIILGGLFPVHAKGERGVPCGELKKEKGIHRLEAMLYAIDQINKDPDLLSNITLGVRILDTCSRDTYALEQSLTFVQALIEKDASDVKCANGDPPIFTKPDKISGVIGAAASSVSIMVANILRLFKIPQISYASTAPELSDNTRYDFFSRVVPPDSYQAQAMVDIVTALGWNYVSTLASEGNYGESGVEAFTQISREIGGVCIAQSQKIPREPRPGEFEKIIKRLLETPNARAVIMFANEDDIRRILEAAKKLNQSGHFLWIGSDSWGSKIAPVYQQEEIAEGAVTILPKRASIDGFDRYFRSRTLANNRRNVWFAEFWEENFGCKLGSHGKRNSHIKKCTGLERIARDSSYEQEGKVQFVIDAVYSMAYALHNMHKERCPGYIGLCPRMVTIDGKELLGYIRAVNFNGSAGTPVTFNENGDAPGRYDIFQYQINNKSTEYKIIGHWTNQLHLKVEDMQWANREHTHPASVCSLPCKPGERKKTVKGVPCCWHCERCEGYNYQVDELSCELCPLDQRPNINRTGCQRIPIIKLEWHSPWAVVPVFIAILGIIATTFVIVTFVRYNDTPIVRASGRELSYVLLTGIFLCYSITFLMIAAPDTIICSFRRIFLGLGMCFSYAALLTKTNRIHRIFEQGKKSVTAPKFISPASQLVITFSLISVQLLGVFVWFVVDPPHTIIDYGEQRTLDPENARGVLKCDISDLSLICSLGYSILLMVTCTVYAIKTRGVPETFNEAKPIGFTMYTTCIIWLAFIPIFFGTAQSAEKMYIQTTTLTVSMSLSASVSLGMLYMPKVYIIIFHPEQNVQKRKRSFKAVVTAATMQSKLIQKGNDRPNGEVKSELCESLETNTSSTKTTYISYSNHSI
Take `O=C(Cn1cccc1C(=O)c1ccccc1)NCc1ccccc1`: the z-score is 0.198.
With `O=C(CSc1nc2ccccc2o1)Nc1ccc(Cl)cc1` the figure was -0.438; with `NC(=O)COc1ccc(/C=N/NC(=O)C2CCCN2S(=O)(=O)c2ccc(Cl)cc2)cc1` (configuration not stated), -0.275.
With `CCOC(=O)c1cc(NC(=O)Nc2nc3ccccc3s2)c(C)nc1C` the figure was -0.113; with `O=C1NN(c2ccccc2)C(=O)/C1=C/c1coc2ccccc2c1=O`, -0.738.
With `Cc1ccc(C(=O)CNc2ccc(F)cc2)cc1` the figure was -0.146.
Regarding `CCC(=O)Nc1cccc(SC)c1`, the z-score is -0.659.
With `O=C1NC2(Nc3ccccc31)C(=O)Nc1ccccc12` (configuration not stated) the figure was 0.475; with `COCCNC(=O)c1c(N)sc2c1CCCC2`, -0.0249.
The result for `CCC(=O)Nc1ncc2c(n1)CC(c1ccco1)CC2=O` (configuration not stated) reads 1.34.
Turning to `O=C(Nc1ccc(Cl)c(Cl)c1)O/N=C/c1ccncc1`, the z-score stood at 0.0392.
The result for `COc1cc(OC)nc(NC(=O)CSc2nnc(-c3ccccc3)n2C2CCCCC2)n1` reads -0.277.
Turning to `CCOC(=O)CSc1nc(C)c2cc(OC)ccc2n1`, the z-score was active: 6.89.
`CCCCNC(=O)c1onc(CSc2cccc(F)c2)c1C(=O)O` came in with a z-score of -0.276.
The result for `COc1ccc(/C=N/N=C2/NC(=O)C(c3ccccc3)S2)c(OC)c1` (configuration not stated) reads -0.166; that for `O=C(CCn1cccc1)NCc1ccc(Cl)cc1`, 0.111; that for `Cc1ccc(NC(=O)NC2CCN(S(=O)(=O)c3ccc(F)cc3)CC2)cc1`, 0.564.
With `CCOC(=O)CS(=O)(=O)c1nc(-c2ccccc2)cc(C(F)(F)F)n1` the figure was -1.
With `CS(=O)(=O)Nc1ccccc1C(=O)Nc1cccc(Cl)c1` the figure was -0.243; with `COc1ccc(CCn2c(-c3cccc([N+](=O)[O-])c3)nc3nc4ccccc4nc32)cc1OC`, -0.0921; with `O=C(O)CNS(=O)(=O)c1cc(Cl)c(Cl)cc1Cl`, -0.632.
For `Cc1cccc2cc(C#N)c(SCC(=O)Nc3ccccc3N3CCOCC3)nc12`, the z-score is -0.0912.
With `CC(=O)c1ccc(NC(=O)COC(=O)CCN2C(=O)c3cccc([N+](=O)[O-])c3C2=O)cc1` the figure was -0.201; with `CC(C)c1ccc(NS(=O)(=O)c2ccc3[nH]cc(C(=O)N4CCC(C(N)=O)CC4)c(=O)c3c2)cc1`, 0.0959.
With `COc1ccc(-c2nc3c(c(=O)n(C)c(=O)n3C)n2CC2CC(c3ccccc3)=NO2)cc1OC` (configuration not stated) the figure was 2.08; with `CC(=O)Nc1c(C)cc(S(C)(=O)=O)cc1C`, 0.226; with `O=C(CN1C(=O)C2C3C=CC(C3)C2C1=O)Nc1ccc2nccnc2c1` (configuration not stated), 0.0363.
As to `O=C(c1cc2c(s1)-c1ccccc1S(=O)(=O)C2)N1CCN(Cc2ccccc2)CC1`, the z-score is -0.0146.
With `O=C(N/N=C/c1cccs1)c1ccc(NC(=O)c2ccccc2Cl)cc1` the figure was -0.183; with `CC(C)OC(=O)CSc1nc2c(c(C3CC=CCC3)c1C#N)CCC2` (configuration not stated), 0.0295.
The result for `O=C1Nc2ccccc2/C1=N\c1sc2c(c1C(=O)Nc1ccccc1)CCCC2` reads 0.907; that for `COc1ccc(C2C(C(=O)O)CCC(=O)N2c2ccc(OC)cc2)cc1` (configuration not stated), -0.399.
The result for `Cc1ccc2cc(C#N)c(SCC(=O)NCC3CCCO3)nc2c1` (configuration not stated) reads 0.016.
Molecule `O=C(Nc1nc2c(Cl)cccc2s1)c1ccc(Br)o1` displayed a z-score of 0.452.
With `O=C(Nc1cccc(F)c1)c1cc(S(=O)(=O)N2CCC(C(=O)O)CC2)ccc1F` the figure was -0.145.
With `Cc1noc(NS(=O)(=O)c2ccc(NC(=O)Nc3ccc(Cl)c(Cl)c3)cc2)c1C` the figure was -0.154; with `Fc1ccccc1NC(=S)N1CCN(c2ccccn2)CC1`, -0.138; with `COC(=O)C1C(=O)C=C(Nc2ccc(F)cc2F)CC1c1ccc(OC)cc1` (configuration not stated), -0.711.
For `O=C(Nc1ccc(S(=O)(=O)N2CCCCC2)cc1)c1cnccn1`, the z-score was -0.589.
The result for `Cc1ccc2[nH]c(=O)c(COC(=O)C3CCCO3)cc2c1` (configuration not stated) reads 0.197.
With `COC(=O)c1ccc(NC(=S)NC2CC3CCC2C3)cc1` (configuration not stated) the figure was 1.
With `Cc1ccc2c(CSc3nc4nc(C)cc(C)n4n3)cc(=O)oc2c1` the figure was -0.245; with `CCOC(=O)C1=C(C)NC(=O)C(C(N)=O)C12CCCCC2` (configuration not stated), 0.437.
As for `CCc1cccc(C)c1NC(=O)CN1C(=O)c2ccccc2S1(=O)=O`, the z-score turned out to be 0.297.
In turn, `O=C(NC(Cc1ccccc1)c1ccc2c(c1)OCCCO2)c1ccccc1F` (configuration not stated) showed a z-score of 0.0517.
With `CC(C)CNC(=O)C1CCCN(S(=O)(=O)c2ccc(-n3cnnn3)cc2)C1` (configuration not stated) the figure was -0.0594.
`CC(C)Oc1ccccc1C1CC(=O)Nc2cc3c(cc21)OCO3` (configuration not stated) had a z-score of -0.905.
With `O=C(c1ccccc1)c1nccc2ccccc12` the figure was -0.111; with `CCOc1cccc(OCCOc2ccccc2[N+](=O)[O-])c1`, -0.153.
Molecule `C#CC1(O)CC(C)NCC1(C)CCC#N` (configuration not stated) yielded a z-score of -0.128.
As to `COc1ccc(C2C=C(C)Nc3nc(SC)nn32)cc1` (configuration not stated), the z-score is -0.206.
The result for `COc1cc2c(cc1OC)C(C1C(=O)CC(C)CC1=O)N(C(=O)CCl)CC2` (configuration not stated) reads 0.249; that for `Cc1ccccc1SCC(=O)OCC(=O)Nc1sccc1C(N)=O`, -0.224; that for `O=C(NCc1cccs1)NC1CCCCC1`, -0.103.
In turn, `COc1ccc(F)cc1S(=O)(=O)N1CCC(C(N)=O)CC1` had a z-score of -0.254.
With `CC(C)(C)c1ccc(/C=C/C(=O)N2CCOCC2)cc1` the figure was -0.28.
The result for `CCCCCCc1ccc(-c2ncc(N)cn2)cc1` reads 0.186; that for `O=C(O)C1CC=CCC1C(=O)N1CCCC1` (configuration not stated), 0.135.
With `CCc1ccccc1NC(=O)CSc1n[nH]c(C)c1[N+](=O)[O-]` the figure was -0.481; with `COc1ccc(S(=O)(=O)NC(CC(=O)NCc2ccco2)C(C)C)cc1` (configuration not stated), 0.189.
The molecule `CCn1c(=N)n(CC(=O)c2ccc(OC)c(OC)c2)c2ccccc21` had a z-score of 0.42.
The result for `CC(=O)Nc1c(-c2ccccc2)nc2ncccn12` reads 2.69; that for `NC(=O)c1ccsc1NC(=O)COC(=O)Cc1ccsc1`, -0.111; that for `CC1(C)Cc2ccccc2C(NNC(=O)c2ccncc2)=N1`, -0.178.
For the molecule `Cc1ccccc1Nc1c(-c2ccncc2)nc2ccc(Br)cn12`, the z-score is -0.114.
The result for `Cc1nc2ccc(Cl)cc2c(-c2ccccc2Cl)c1CC(=O)O` reads -0.187; that for `Cc1ccc(S(=O)(=O)NCC(=O)NCc2ccncc2)cc1`, 0.0563.
Molecule `CC(c1cccnc1)N(CCN(C)C)C(=O)Nc1ccc(Cl)cc1` (configuration not stated) registered a z-score of -0.337.
The result for `Cc1ccc(C)n1NC(=O)c1ccccc1O` reads 0.41; that for `CCCCNS(=O)(=O)c1ccc(OC)cc1`, -0.0131; that for `Cn1c(=O)c(-c2cc(Br)ccc2N)nc2ccccc21`, -0.264.
With `Cc1cc(NC(=O)CSc2nc3ccccc3c(=O)n2Cc2ccccc2)no1` the figure was active: 4.05.
With `CCOc1ccc(Br)cc1/C=N/O` the figure was -0.187; with `CCc1nnc(NC(=O)[C@@H]2CCCN2S(=O)(=O)c2ccc3c(c2)OCCO3)s1`, 0.228.
Regarding `O=C(Nc1ccccc1N1CCN(C(=O)c2ccc(Cl)cc2)CC1)c1cc(Br)ccc1Cl`, the z-score was -0.323.
With `COc1ccc(C(=O)Nc2c(Cl)cc(Cl)cc2C(=O)N2CCC(C)CC2)cc1` the figure was -0.343; with `COC(=O)c1ccc(CSc2nc3ccccc3s2)o1`, -0.313; with `CS(=O)(=O)N(Cc1ccccc1)c1ccccc1C(=O)O`, -0.0382.
The result for `Cc1csc(SC(C)C(=O)Nc2ccc(Cl)cn2)n1` (configuration not stated) reads 0.168.
For the molecule `O=C(c1cc2cc(Br)ccc2oc1=O)N1CCN(c2ccccn2)CC1`, the z-score is -0.629.
The result for `Cn1c(=O)c2c(ncn2CC(=O)N2CCOCC2)n(C)c1=O` reads 0.0191; that for `COc1ccc(-c2noc(CCC(=O)NCCCN3CCC(Cc4ccccc4)CC3)n2)cc1`, 0.241; that for `CCCCS(=O)(=O)/C=C/[C@H]1[C@H](S(=O)(=O)CCCC)[C@H]2C=C[C@@H]1C2`, -0.0773.
The result for `CCOC(=O)N1CCC(N2Cc3cccc(C(=O)Nc4ccc(F)cc4)c3C2=O)CC1` reads 0.0504.
With `C=CCn1cc(C(=O)NCCOC)c(=O)c2cc(S(=O)(=O)N(CC)CC)ccc21` the figure was -0.181.
With `CSCCC(NS(=O)(=O)c1ccc(Cl)cc1)C(=O)OCC(=O)NC12CC3CC(CC(C3)C1)C2` (configuration not stated), the z-score worked out at 0.328.
With `COC(=O)c1c(NC(=O)c2ccccc2)sc(Cc2ccccc2)c1C` the figure was -0.0779; with `COc1ccc(NC(=O)Cn2nc(C(F)(F)F)c3c2CCCC3)c(OC)c1`, -0.251; with `Cc1cc(C)nc(NC(=O)c2cnc3sccn3c2=O)n1`, -0.0765.
With `COc1ccc(C2C(C(=O)N3CCOCC3)=C(C)NC3=C2C(=O)CC(C)(C)C3)cc1O` (configuration not stated) the figure was -0.281.
In turn, `CCOC(=O)C1CCN(C(=O)CSc2cc(=O)n(CC)c3ccccc23)CC1` came in with a z-score of 0.042.
With `CCN(CC)Cc1c(O)c(Cl)cc2c3c(c(=O)oc12)CCCC3` the figure was -0.137; with `Cc1ccc(S(=O)(=O)Nc2ccc(NC(=O)CN3CCCCC3)cc2)cc1`, 0.237.
The molecule `CC(=O)Nc1cc(C(F)(F)F)ccc1N1CCOCC1` yielded a z-score of 0.184.
With `COc1cc(C(C(=O)NC(C)(C)C)N(C(=O)CNC(=O)c2cccs2)c2ccccc2)cc(OC)c1OC` (configuration not stated) the figure was -0.83.
The result for `CCCCn1c(SCc2ncc(-c3ccccc3)o2)nc2cc(S(N)(=O)=O)ccc21` reads 0.216; that for `CC(=O)Nc1ccc(OCC(=O)c2cc(C)ccc2C)cc1`, -0.144.
Molecule `O=C(COC(=O)c1ccccc1)NCC1CCCO1` (configuration not stated) displayed a z-score of -0.112.
On to `CCCCCCCCc1nc(=S)[nH][nH]1`, for which the z-score is active: 15.3.
The result for `Cc1cc(C)nc(NC(=O)c2cc(-c3ccc(C)s3)nc3ccccc23)c1` reads -0.437; that for `CCN(CC(=O)NCCc1ccc(S(N)(=O)=O)cc1)Cc1nc2ccccc2c(=O)[nH]1`, -0.0392; that for `Cc1ccc(-c2nn3c(C)nnc3s2)cc1NCc1c(F)cccc1Cl`, 1.04.
With `Cn1ncc(C#N)c1/N=C/N1CCCCCC1` the figure was 0.0919; with `N#Cc1ccccc1NC(=O)CSc1nnc(-c2ccccc2O)n1-c1ccccc1`, -0.752; with `Cc1ccc(CNC(=O)Cc2nc3nc(C)cc(C)n3n2)cc1`, -0.0287.
Molecule `O=C(NCc1cccnc1)C(=O)NCC(c1ccco1)N1CCN(c2ccccc2F)CC1` (configuration not stated) displayed a z-score of -0.0446.
With `CCCC(=O)n1nc(-c2ccc(Cl)cc2)nc1SC` the figure was -0.0675.
With `O=C(C1CCN(C2CC(=O)N(c3cccc(Cl)c3)C2=O)CC1)N1CCCC1` (configuration not stated) the figure was -0.132; with `CCNC(=O)NC(=O)C(C)OC(=O)C1CCN(S(=O)(=O)c2ccc(C)c(C)c2)CC1` (configuration not stated), -0.143.
With `Nc1nc(N2CCOCC2)cc(=O)[nH]1` the figure was 0.0966.
Molecule `CCOC(=O)c1cc(C)n(Cc2cccc(OC)c2OC)c1C` gave a z-score of -0.234.
With `CC1CC1C(=O)OCC(=O)NCc1ccc(Cl)cc1Cl` (configuration not stated) the figure was -0.0696.
